{
  "source": "PubChem BioAssay AID686971",
  "about": "(National Center for Advancing Translational Sciences (NCATS), 2013)",
  "note": "Where “and” joins values, the source holds several entries; their conditions need not be identical. Identical values can stand only once. The campaign covered roughly 360,000 compounds. About 7,500 (2.1%) were called active. Inconclusive means that the source gave no clear call. Such entries were picked first, then a sample of the others. Calls follow the shape of the dose curve; as a rule, active = well fitted cell-killing curve with a large enough effect; inconclusive = small, poorly fitted or top-dose-only effect, or effect the other way, or another doubt; inactive = no such curve, though single readings can be large or run the other way. A potency beside an inconclusive call is a rough fit, not a confirmed value. Potency is read from the fitted curve at half-maximal effect; tags tell the direction and shape of the fitted curve.",
  "data": [
    {"test": "qHTS for induction of synthetic lethality in tumor cells producing 2HG: qHTS for the HT-1080-IDH1KD cell line;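 as to activity, negative = toxicity: 0% = DMSO wells and -100% = cell-free medium wells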", "details": "HT-1080 IDH1 knockdown viability, ATP luminescence, 48 h; activity, negative = toxicity: at 46.1 µM (top of the series) unless noted", "how_it_was_run": "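Using the IDH1-knockdown HT-1080 line run in the same batch and compound series as the NT line, viability after 48 h at 37 °C was determined by CellTiter-Glo luminescence and expressed as % activity.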", "values": [
      {"smiles": "COc1ccc(N2CCN(CCCn3c(=S)[nH]c4ccccc4c3=O)CC2)cc1", "Potency": "inconclusive: 29.1 µM [cytotoxic, single point]"},
      {"smiles": "CC1CCc2c(nc3ncnn3c2NCCc2ccccc2F)C1", "note": "(configuration not stated)", "activity, negative = toxicity": "inactive: -8.95%"},
      {"smiles": "CN(Cc1ccccc1)C(=O)c1oc(=O)c2ccccc2c1-c1ccccc1", "activity, negative = toxicity": "inactive: -19.9%"},
      {"smiles": "CCCCNc1c(-c2ccc(SC3CCCCC3)cc2)nc2cnccn12", "Potency": "inconclusive: 29.6 µM [cytotoxic, single point] and inconclusive: 25.9 µM [cytotoxic, partial curve]"},
      {"smiles": "CCOP(=O)(OCC)C(NC(=O)c1cccs1)c1ccccc1", "note": "(configuration not stated)", "activity, negative = toxicity": "inactive: -0.665%"},
      {"smiles": "Cc1ccc(C)c(NC(=S)NNC(=O)c2csc3c2CCCC3)c1", "Potency": "inconclusive: 35.5 µM [cytotoxic, single point]"},
      {"smiles": "O=C(COc1ccc(S(=O)(=O)N2CCCC2)cc1Cl)NCc1ccc2c(c1)OCO2", "activity, negative = toxicity": "inactive: -0.476%"},
      {"smiles": "O=C(NC1CC1)C1CCN(S(=O)(=O)c2ccc(Cl)c([N+](=O)[O-])c2)CC1", "Potency": "inconclusive: 20.6 µM [cytotoxic, single point]"},
      {"smiles": "O=[N+]([O-])c1ccc(S(=O)(=O)NCCc2ccncc2)cc1", "activity, negative = toxicity": "inactive: 2.04%"},
      {"smiles": "Cn1c2ccc(F)cc2c2ncn(CCN3CCOCC3)c(=O)c21", "Potency": "inconclusive: 32.6 µM [cytotoxic, single point]"},
      {"smiles": "CCOC(=O)c1c(C)[nH]c2c1cc(O)c1ccccc12", "Potency": "inconclusive: 22.4 µM [cytotoxic, single point]"},
      {"smiles": "O=C(CCNc1cccc(Cl)c1)c1ccco1", "Potency": "inconclusive: 35.5 µM [cytotoxic, single point]"},
      {"smiles": "N/N=C/C(=N\\Nc1ccc(Cl)cc1)C(=O)c1ccncc1", "Potency": "inconclusive: 29.1 µM [cytotoxic, partial curve]"},
      {"smiles": "Cc1ccc(-n2cc(CNCCn3nc(C)cc3C)c(-c3ccc(F)cc3)n2)cc1", "Potency": "inconclusive: 29.1 µM [cytotoxic, single point]"},
      {"smiles": "CCc1nc2c(OCC3CCCCC3)cccn2c1N(C=O)Cc1ccc(OC)cc1", "Potency": "inconclusive: 20.6 µM [cytotoxic, single point]"},
      {"smiles": "CN1CCN(c2ccc(NC(=O)c3ccc(C(F)(F)F)cc3)cn2)CC1", "Potency": "inconclusive: 29.1 µM [cytotoxic, single point]"},
      {"smiles": "CCCn1c2ccccc2c2cnn(CC(=O)NCCCN3CCCCC3CC)c(=O)c21", "note": "(configuration not stated)", "Potency": "inconclusive: 18.4 µM [cytotoxic, single point]"},
      {"smiles": "COc1ccc(NC(=O)c2ccc(NC(=O)CN3CCN(c4ccccc4OC)CC3)cc2)cc1", "Potency": "inconclusive: 18.4 µM [cytotoxic, single point]"},
      {"smiles": "C=CCc1cc(C=O)cc(OC)c1OCc1c(Cl)cccc1Cl", "Potency": "inconclusive: 35.5 µM [cytotoxic, single point]"},
      {"smiles": "CCOc1ccc(NC(=O)c2cc([N+](=O)[O-])ccc2N2CCOCC2)cc1", "Potency": "inconclusive: 25.9 µM [cytotoxic, single point]"},
      {"smiles": "CCCNC(=O)c1cc2c(c(-c3cccc(-c4cc5ccccc5o4)c3)n1)[C@H](CCO)N(C(=O)NC(C)C)C2", "Potency": "inconclusive: 3.66 µM [cytotoxic, full curve]"},
      {"smiles": "CCN(CC)C(=O)c1cc(-c2ccc(Br)cc2)on1", "Potency": "inconclusive: 0.251 µM [rising, full curve]"},
      {"smiles": "Oc1c(Br)cc(Cl)cc1C=Nc1ccccc1Br", "Potency": "inconclusive: 29.1 µM [cytotoxic, single point]"},
      {"smiles": "Cc1cc(C)c(COc2ccc(/C=N/n3c(C)n[nH]c3=S)cc2)c(C)c1", "Potency": "inconclusive: 29.1 µM [cytotoxic, single point]"},
      {"smiles": "O=c1c2cc(Br)ccc2[nH]c(=S)n1Cc1ccccc1", "activity, negative = toxicity": "inactive: 7.68%"},
      {"smiles": "CCOC(=O)C1(CC2CCCCO2)CCN(S(=O)(=O)c2cc(C)cs2)CC1", "note": "(configuration not stated)", "activity, negative = toxicity": "inactive: -14.6%"},
      {"smiles": "O=c1[nH]c(C2CCN(S(=O)(=O)c3ccccc3)CC2)nc2c1nnn2Cc1cccc(Cl)c1", "Potency": "inconclusive: 23.1 µM [cytotoxic, single point]"},
      {"smiles": "Cc1ccnc(NS(=O)(=O)c2ccc(NC(=O)C3CCCCC3C(=O)O)cc2)n1", "note": "(configuration not stated)", "activity, negative = toxicity": "inconclusive: -17.5% [cytotoxic]"},
      {"smiles": "Cc1ccc([C@H]2C[C@H](O)[C@@H](n3cc(-c4ccc(F)cc4)nn3)CN2CC2CCCCC2)cc1", "activity, negative = toxicity": "inactive: 0.988%"},
      {"smiles": "O=c1c2ccccc2ncn1-c1ccc([N+](=O)[O-])cc1Cl", "Potency": "inconclusive: 29.1 µM [rising, partial curve, poor fit]"},
      {"smiles": "CC(C)CN(CC(C)C)C(=O)c1cccc(S(=O)(=O)N2CCc3ccccc32)c1", "Potency": "inconclusive: 10.3 µM [cytotoxic, partial curve]"},
      {"smiles": "COc1ccc(CN2C(=O)c3ccccc3C2C(=O)NC2CCCC(C)C2C)c(OC)c1", "note": "(configuration not stated)", "activity, negative = toxicity": "inactive: -1.8%"},
      {"smiles": "CCOC(=O)NC(C(Cl)(Cl)Cl)S(=O)(=O)c1ccccc1", "note": "(configuration not stated)", "Potency": "inconclusive: 18.4 µM [cytotoxic, single point]"},
      {"smiles": "Cc1cc(C)c(C)c(N=Nc2nc3ccccc3n2C)c1C", "Potency": "inconclusive: 29.1 µM [cytotoxic, single point]"},
      {"smiles": "Clc1ccc2nc(CN3CCCc4ccccc43)cn2c1", "Potency": "inconclusive: 35.5 µM [cytotoxic, single point]"},
      {"smiles": "Nc1c(C(=O)NCc2ccccc2)c2nc3ccccc3nc2n1CCCN1CCOCC1", "Potency": "inconclusive: 29.1 µM [cytotoxic, single point]"},
      {"smiles": "Cc1cc(C)c2c(N)c(C(=O)N3CCc4ccccc4C3)sc2n1", "activity, negative = toxicity": "inactive: -4.28%"},
      {"smiles": "Cc1cc(OCC(O)CNC(C)c2ccccc2)ccc1C(C)C", "note": "(configuration not stated)", "Potency": "active: 18.4 µM"},
      {"smiles": "Cc1ccc(C2C3=C(CC(C)(C)CC3=O)N=C3c4ccccc4C(=O)C32)cc1", "note": "(configuration not stated)", "Potency": "inconclusive: 32.6 µM [cytotoxic, single point]"},
      {"smiles": "CC(=NNC(=S)N1CCCCC1)c1ccccn1", "Potency": "inconclusive: 0.0092 µM [cytotoxic, full curve, poor fit]"},
      {"smiles": "Cc1cc(C)cc(NC(=O)CSc2nnc(-c3ccccc3C)o2)c1", "activity, negative = toxicity": "inconclusive: 30.4%"},
      {"smiles": "O=c1[nH]c(SCc2nc3ccccc3c(=O)n2-c2ccccc2)nc2ccccc12", "Potency": "inconclusive: 20.6 µM [cytotoxic, single point]"},
      {"smiles": "C/C(=N\\NC(N)=S)C12CC3CC(CC(C3)C1)C2", "Potency": "active: 6.31 µM"},
      {"smiles": "CSC(=S)NCc1cccnc1", "Potency": "inconclusive: 23.1 µM [cytotoxic, single point]"},
      {"smiles": "COc1cc(CNC(=O)c2cc(C(=O)NCc3cc(OC)cc(OC)c3)n(C)n2)cc(OC)c1", "activity, negative = toxicity": "inactive: -3.31%"},
      {"smiles": "Cc1cc(C)nc(NC(=O)Nc2ccccc2C(F)(F)F)n1", "Potency": "inconclusive: 35.5 µM [cytotoxic, single point]"},
      {"smiles": "O=C(N/N=C/c1ccc(Cl)cc1Cl)Nc1ccccc1", "Potency": "inconclusive: 35.5 µM [cytotoxic, single point]"},
      {"smiles": "Cc1cc(C)c2nc(SCC(=O)N3CC(=O)Nc4ccccc43)c(C#N)cc2c1", "Potency": "active: 0.92 µM"},
      {"smiles": "Nc1nonc1-c1noc(CCCOc2ccc(Cl)cc2Cl)n1", "Potency": "inconclusive: 32.6 µM [cytotoxic, single point]"},
      {"smiles": "NC(CCc1ccccc1)c1csc(NC(=O)Nc2ccccc2Oc2ccccc2)n1", "note": "(configuration not stated)", "Potency": "inconclusive: 29.1 µM [cytotoxic, single point]"},
      {"smiles": "CN(C)CC(CCC(CN(C)C)C(=O)c1ccccc1)C(=O)c1ccccc1", "note": "(configuration not stated)", "Potency": "active: 5.8 µM"},
      {"smiles": "O=c1cc(CSc2nnc(-c3cccs3)n2Cc2ccccc2)nc2sc3ccccc3n12", "Potency": "active: 25.9 µM"},
      {"smiles": "Cc1cccc(CSc2nnc(CCNC(=O)OC(C)(C)C)o2)c1", "activity, negative = toxicity": "inactive: -1.4%"},
      {"smiles": "OC(CNC1CCCCCC1)COc1cccc2ccccc12", "note": "(configuration not stated)", "Potency": "inconclusive: 20.6 µM [cytotoxic, single point]"},
      {"smiles": "Cc1cc(=O)oc(C)c1C(=O)OCC(=O)c1ccccc1", "activity, negative = toxicity": "inactive: 12.3%"},
      {"smiles": "OCC[C@H]1C[C@H](O)[C@@H](O)[C@]2(CCCO2)O1", "activity, negative = toxicity": "inactive: 10.9%"},
      {"smiles": "CC(=O)c1c(C(=O)O)[nH]c(C(=O)O)c1C", "Potency": "inconclusive: 16.4 µM [rising, partial curve]"},
      {"smiles": "COc1ccc(S(=O)(=O)Nc2cc3[nH]c(=O)oc3cc2C)cc1", "Potency": "inconclusive: 29.1 µM [cytotoxic, single point]"},
      {"smiles": "CN(C)S(=O)(=O)NCC1CCCN(Cc2cc3ccccc3s2)C1", "note": "(configuration not stated)", "activity, negative = toxicity": "inactive: -6.98%"},
      {"smiles": "COc1cc(C=CC(=O)c2ccccc2)cc(OC)c1OC", "Potency": "active: 8.2 µM"},
      {"smiles": "COc1ccc(-c2cc(C(F)F)n3ncc(C(=O)n4ccnc4C)c3n2)cc1", "activity, negative = toxicity": "inconclusive: -33.6% [cytotoxic]"},
      {"smiles": "CNCc1c(OCc2ccccc2)ccc2ccccc12", "Potency": "inconclusive: 18.4 µM [cytotoxic, single point]"},
      {"smiles": "O=c1c(-c2ccccc2)c(-c2ccccc2)oc2cc(O)cc(O)c12", "activity, negative = toxicity": "inactive: -18.5%"},
      {"smiles": "Cc1ccnc(NC(=O)c2ccccc2NC(=O)C(C)(C)C)c1", "Potency": "inconclusive: 16.4 µM [cytotoxic, partial curve]"},
      {"smiles": "N#Cc1cccc(-c2csc(C(O)(c3ccccc3)C(F)(F)F)n2)c1", "note": "(configuration not stated)", "Potency": "active: 16.4 µM"},
      {"smiles": "Oc1ccc(N=Nc2nccs2)c(O)c1", "Potency": "active: 4.11 µM"},
      {"smiles": "Cc1cccc(N(C)S(=O)(=O)c2c(C)noc2C)c1", "activity, negative = toxicity": "inactive: -0.198%"},
      {"smiles": "CCN(CC)CCNC(=O)c1ccc(NC(=O)c2cn(-c3ccc(F)cc3)nc2-c2cccc(OC)c2)cc1", "Potency": "active: 20.6 µM"},
      {"smiles": "O=[N+]([O-])c1ccc(O)c(Nc2c([N+](=O)[O-])ccc3nonc23)c1", "Potency": "inconclusive: 16.4 µM [cytotoxic, single point]"},
      {"smiles": "Cc1ccc(O)c(C(=O)/C=C/c2ccc3c(c2)OCCCO3)c1", "Potency": "inconclusive: 29.1 µM [cytotoxic, single point]"},
      {"smiles": "COc1ccc(OCC(=O)Nc2nc3ccc(NC(C)=O)cc3s2)cc1", "Potency": "inconclusive: 29.1 µM [cytotoxic, single point]"},
      {"smiles": "O=C(NNc1ccccc1Cl)C(O)(c1cccc(C(F)(F)F)c1)c1cccc(C(F)(F)F)c1", "Potency": "inconclusive: 23.1 µM [cytotoxic, single point]"}
    ]}
  ]
}
